Our source for the binding result and koff values is patent US20210363269A1 (ALX ONCOLOGY, published 2021).

Numbering of substitutions follows the chain as printed.

Sequences and labels used below:
T1: C57BL/6 mouse SIRP-α D1 domain (mouse (C57BL/6 strain), UniProt P97797 32-148)
T1 sequence: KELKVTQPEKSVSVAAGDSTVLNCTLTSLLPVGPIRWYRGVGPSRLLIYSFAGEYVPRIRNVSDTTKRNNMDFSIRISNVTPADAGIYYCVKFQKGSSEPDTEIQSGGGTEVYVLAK

T2: mouse 129 SIRP-α D1 domain (mouse (129 strain), UniProt P97797 32-150)
T2 construct: also called m129
T2 chain: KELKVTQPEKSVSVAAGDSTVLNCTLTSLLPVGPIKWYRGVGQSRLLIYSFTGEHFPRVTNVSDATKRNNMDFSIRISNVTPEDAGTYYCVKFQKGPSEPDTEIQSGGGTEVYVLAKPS

T3: NOD mouse SIRP-α D1 domain (mouse (NOD strain))
T3 chain: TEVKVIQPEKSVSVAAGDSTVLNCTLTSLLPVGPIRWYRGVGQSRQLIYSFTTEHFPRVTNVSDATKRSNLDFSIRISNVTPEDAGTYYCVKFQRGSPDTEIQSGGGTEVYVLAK

T4: cynomolgus SIRP-α D1 domain (SEQ ID NO:11) (cynomolgus, UniProt Q5TFQ8 30-148 (human entry), limits assumed)
T4 construct: also called cyno1
T4 chain: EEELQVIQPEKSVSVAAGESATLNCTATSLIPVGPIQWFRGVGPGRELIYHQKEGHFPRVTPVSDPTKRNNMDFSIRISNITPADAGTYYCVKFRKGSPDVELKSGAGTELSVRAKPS

T5: cynomolgus SIRP-α D1 domain (SEQ ID NO:12) (cynomolgus, UniProt Q5TFQ8 30-148 (human entry), limits assumed)
T5 construct: also called cyno2; Cyno2
T5 chain: T4 chain with E19D, A27V, T28S, V42A, H51N, Q52L, P62A

T6: high affinity SIRP-α D1 variant CV1-3 (human)
T6 chain: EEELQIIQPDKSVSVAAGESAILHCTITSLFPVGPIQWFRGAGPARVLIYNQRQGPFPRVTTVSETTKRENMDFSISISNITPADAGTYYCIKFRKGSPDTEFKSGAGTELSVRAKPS

B1: S9 scFv-Fc (scFv)
scFv: ALTQPSSVSANPGETVKITCSGDNSAHYYYGWYQQKSPGSAPVTVIYYNDKRPSGIPSRFSGSASGSTATLIITGVQVEDEAVYFCGSADSSNPAIFGAGTTLTVLGQSSRSSGGGGSSGGGGSMAAVTLDESGGGLQTPGRALSLVCRGSGFSISSYNMGWVRQAPGKGLEFIASIGSDGSSTHYAPAVKGRATITRDVGQSTVRLQLNNLRAEDTGTYFCAKDAYQCSYATCNDYLDTIDAWGHGTEVIVSSSL[letters of human IgG1 Fc with C220S (EU numbers) and a few adjoining residues left out]
B2: S115 scFv-Fc (scFv)
scFv: ETVLTQSPATLSVSPGERATLSCRASQTVGSKLAWHQQKPGQAPRLLIYDATNRATGISDRFSGSGSGTDFTLTISSLQTEDSAVYYCQQYYYWPPYRFGGGTKVEIKGQSSRSSGGGGSSGGGGSDVQLVESGGGVVRPGESLRLSCAASGFSFSSYAMNWVRQAPGEGLEWVSRINSGGGGTDYAESVKGRFTISRDNSENTLYLQMNSLRAEDTAVYYCAKQYDWNSFFDYWGLGALVTVSSSL[letters of human IgG1 Fc with C220S (EU numbers) and a few adjoining residues left out]
B3: S116 scFv-Fc (scFv)
scFv: ETVLTQSPATLSVSPGERATLSCRASQTVGSKLAWHQQKPGQAPRLLIYDATNRATGISDRFSGSRSGTDFTLTISSLQTEDSAVYYCQQYYYWPPYRFGGGTKVEIKGQSSRSSGGGGSSGGGGSDVQLVESGGGVVRPGESLRLSCAASGFSFSSYAMNWVRQAPGEGLEWVSRINSGGGGTDYAESVKGRFTISRDNSENTLYLQMNSLRAEDTAVYYCAKQYDWNSFFDYWGLGALVTVSSSL[letters of human IgG1 Fc with C220S (EU numbers) and a few adjoining residues left out]
B4: S118 scFv-Fc (scFv)
scFv: ETVLTQSPATLSVSPGERATLSCRASQTVGSKLAWHQQKPGQAPRLLIYDASRRATGIPDRFSGSGSGTDFTLTISSLQTEDSAVYYCQQYYYWPPYRFGGGTKVEIKGQSSRSSGGGGSSGGGGSDVQLVESGGGVVRPGESLRLSCAASGFSFSSYAMNWVRQAPGEGLEWVSRINSGGGGTDYAESVKGRFTISRDNSENTLYLQMNSLRAEDTAVYYCAKQYDWNGFFDYWGLGALVTVSSSL[letters of human IgG1 Fc with C220S (EU numbers) and a few adjoining residues left out]
B5: S117 scFv-Fc (scFv)
scFv: ETVLTQSPATLSVSPGERATLSCRASQTVGSKLAWHQQKPGQAPRLLIYDATNRATGIPDRFSGSGSGTDFTLTISSLQTEDSAVYYCQQYYYWPPYRFGGGTKVEIKGQSSRSSGGGGSSRGGGSDVQLVESGGGVVRPGESLRLSCAASGFSFSSYAMNWVRQAPGEGLEWVSRINSGGGGTDYAESVKGRFTISRDNSENTLYLQMNSLRAEDTAVYYCAKQYDWNGFFDYWGLGALVTVSSSL[letters of human IgG1 Fc with C220S A231V (EU numbers) and a few adjoining residues left out]
B6: S135 scFv-Fc (scFv)
scFv: EIVLTQSPATLSVSPGERVTFSCRASQNVRSDIAWYQQKPGQAPRLLIYAASSRDTGIPDRFSGSGSGTDFTLTISSLQSEDFGVYYCQQYYDWPPFTFGGGTKVEIKGQSSRSSGGGGSSGGGGSDVQLVESGGGVVRPGESLRLSCAASGFSFSIYAMSWVRQAPGEGLEWVSTIGADDTYYADSVKGRFTISRDNSKNTLYLQMNSLRAEDTAVYYCAKDSTVGWSGDFFDYWGLGTLVTVSSSL[letters of human IgG1 Fc with C220S (EU numbers) and a few adjoining residues left out]

One assay deals with T1, C57BL/6 mouse SIRP-α D1 domain. Put plainly: SPR, captured scFv-Fc. Summed up:
(§1)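 Pre-filtered culture media supplied the scFv-Fc antibody clones, which were captured by anti-human IgG Fc amine-coupled (about 4000 RU) to a GLC chip on a ProteOn XPR36. SIRP analytes were flowed in PBS pH 7.4 with 0.01% Tween-20 at 25° C. Interspot and buffer-blank responses were subtracted from the data, which were then fitted to a 1:1 Langmuir model. Dissociation rate constants (koff) were derived from this fitting.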
(In general: SPR reads the build-up and loss of mass on a sensor chip optically.)
For the molecule B1, the binding result is given as “no binding (tested: 100 nM)”.
Consider B2, for which the binding result is reported as “no binding (tested: 100 nM)”.
As for B3, the binding result is listed as “no binding (tested: 100 nM)”.
Turning to B4, the binding result is on record as “no binding (tested: 100 nM)”.
For the molecule B5, the binding result was “no binding (tested: 100 nM)”.
The same measure, in the same setting: under B6 stands “no binding (tested: 100 nM)”.

In a further assay the target is T2, mouse 129 SIRP-α D1 domain. Nature of the assay: SPR, captured scFv-Fc. Summed up:
as §1
As to B1, the binding result is reported as “no binding (tested: 100 nM)”.
The same measure, in the same setting: under B2 stands “no binding (tested: 100 nM)”; under B3, “no binding (tested: 100 nM)”; under B4, “no binding (tested: 100 nM)”.
On the same count and under the same terms, the result for B5 reads “no binding (tested: 100 nM)”; that for B6, “no binding (tested: 100 nM)”.

A further assay deals with T3, NOD mouse SIRP-α D1 domain. Put plainly: SPR, captured scFv-Fc. Summed up: as §1
In the case of B2, the binding result is “no binding (tested: 100 nM)”.
On to B3, for which the binding result is on record as “no binding (tested: 100 nM)”.
Consider B4, for which the binding result is on record as “no binding (tested: 100 nM)”.
Consider B5, for which the binding result was “no binding (tested: 100 nM)”.
Consider B6, for which the binding result is reported as “no binding (tested: 100 nM)”.

The next assay deals with T4, cynomolgus SIRP-α D1 domain (SEQ ID …). Put plainly: SPR, captured scFv-Fc, 100 nM analyte. Here is the method:
(§2) Binding of the antibody clones to various SIRP proteins was determined using surface plasmon resonance (SPR) detection on a ProteOn XPR36 instrument (Bio-Rad, Hercules, Calif.) using phosphate buffered saline (PBS, pH 7.4) supplemented with 0.01% Tween-20 (PBST) as running buffer. The pre-filtered media containing the secreted antibodies was used directly for the assay. First, anti-Human IgG Fc (BR-1008-39, GE Healthcare) was amine-coupled onto a GLC sensor chip to generate the capture surfaces for the antibodies. About 4000 RU per flow cell of immobilized anti-human IgG Fc is achieved. Each clone is screened using the same method as follows.
(§3) (1) ‥5-10 uL of pre-filtered media in 10 mM sodium acetate buffer (pH4.5) was injected for 2 mins at 30 ul/min;
(§4) The koff rates of binding of each clone to each SIRP analyte were determined using SPR (Table C). The SPR screening conditions have been described herein, and the Koff values were determined using Langmuir kinetic fittings. The CD47 blocking properties (block, non-block, kick-off) are described in the last column of the Table C. Each antibody is identified according to its corresponding SEQ ID NO. SIRP analyte sequences are as follows: CV1-3, SEQ ID NO:18; v1, SEQ ID NO:5; v2, SEQ ID NO:6; cyno1, SEQ ID NO:11; cyno2, SEQ ID NO:12; m129, SEQ ID NO:7; NOD, SEQ ID NO: 8; BL6, SEQ ID NO:9; sirpb1, SEQ ID NO:13; sirpg, SEQ ID NO:15.
As for B1, the off-rate (koff) turned out to be 0.000338 s⁻¹.
Regarding B2, the koff stood at 2.22e-05 s⁻¹. Against the preceding molecule, the koff is about 15-fold lower.
B3: the koff amounted to 7.01e-05 s⁻¹. Against the preceding molecule, the koff is about 3.2-fold higher.
Consider B4, for which the koff is 6.97e-05 s⁻¹.
Take B5: the dissociation rate constant (koff) was 1.83e-05 s⁻¹.
In turn, B6 came in with a koff of 0.000473 s⁻¹.

The target in the next assay is T5, cynomolgus SIRP-α D1 domain (SEQ ID …). Put plainly: SPR, captured scFv-Fc, 100 nM analyte. The protocol:
as §2, §3, §4
B1: the koff came out at 0.00027 s⁻¹.
B2: the koff was 6.91e-05 s⁻¹. This koff is about 3.9-fold lower than that of the molecule before.
The molecule B3 gave a koff of 0.00012 s⁻¹.
The same measure, in the same setting: under B4 stands 8.06e-05 s⁻¹; under B5, 5.92e-05 s⁻¹.
Take B6: the koff stood at 0.000388 s⁻¹.

The next assay has as its target T6, high affinity SIRP-α D1 variant CV1-3. Nature of the assay: SPR, captured scFv-Fc, 100 nM analyte. The protocol:
as §2, §3, §4
The molecule B1 had a koff of 0.000168 s⁻¹.
B2 had a koff of 0.000484 s⁻¹.
Still for that read-out and setting: the result for B3 reads 0.00048 s⁻¹; that for B4, 0.000247 s⁻¹.
In the case of B5, the koff was found to be 0.000275 s⁻¹.
Molecule B6 showed a koff of 0.00363 s⁻¹.

In the next assay the target is T7, human SIRP-α v1 D1 domain (human, UniProt P78324 31-149).
T7 construct: also called human v1; human α v1
T7 sequence (P78324 31-149 limits assumed): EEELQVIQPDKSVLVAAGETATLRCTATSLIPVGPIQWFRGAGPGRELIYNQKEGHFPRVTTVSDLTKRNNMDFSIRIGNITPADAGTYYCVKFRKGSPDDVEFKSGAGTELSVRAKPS
Put plainly: SPR, captured scFv-Fc, 100 nM analyte. Here is the method:
as §2, §3, §4
B1 displayed a koff of 0.000129 s⁻¹.
For B2, the koff amounted to 7.86e-06 s⁻¹.
On to B3, for which the koff was determined as 2.84e-05 s⁻¹.
B4: the koff was 9.17e-06 s⁻¹.
With B5, the koff worked out at 1.2e-05 s⁻¹.
B6 displayed a koff of 0.000658 s⁻¹. This koff lies about 55-fold higher than the previous one.

The next assay concerns the target T8, human SIRPβ isoform 1 (human, UniProt O00241 30-148).
T8 construct: also called sirpb1; Sirpb1
T8 sequence (O00241 30-148 limits assumed): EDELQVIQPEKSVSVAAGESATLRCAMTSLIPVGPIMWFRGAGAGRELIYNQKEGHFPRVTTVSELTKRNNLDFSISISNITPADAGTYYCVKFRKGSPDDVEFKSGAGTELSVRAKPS
Put plainly: SPR, captured scFv-Fc, 100 nM analyte. Here is the method:
as §2, §3, §4
In the case of B1, the koff stood at 0.000103 s⁻¹.
B4 showed a koff of 1.31e-05 s⁻¹.
Same read-out and setting: under B6 stands 0.000521 s⁻¹.

Another assay has as its target T9, human SIRPγ isoform 1 (human, UniProt Q9P1W8 29-147).
T9 construct: also called sirpg; sirp-g
T9 sequence (Q9P1W8 29-147 limits assumed): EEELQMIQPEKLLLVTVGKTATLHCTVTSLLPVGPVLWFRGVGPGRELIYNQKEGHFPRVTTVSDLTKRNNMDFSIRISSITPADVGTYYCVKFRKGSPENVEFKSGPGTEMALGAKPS
Nature of the assay: SPR, captured scFv-Fc, 100 nM analyte. The protocol: as §2, §3, §4
For the molecule B1, the koff is 0.0071 s⁻¹.
Still for that read-out and setting: under B2 stands 3.34e-05 s⁻¹; under B3, 8.25e-05 s⁻¹; under B4, 1.13e-05 s⁻¹.
B5 gave a dissociation rate constant (koff) of 4.3e-06 s⁻¹.
The molecule B6 yielded an off-rate constant (koff) of 0.00146 s⁻¹.

In a further assay the target is T10, human SIRP-α v2 D1 domain (human).
T10 construct: also called human v2; human α v2
Put plainly: SPR, captured scFv-Fc, 100 nM analyte. The protocol: as §2, §3, §4
On to B1, for which the off-rate constant (koff) was found to be 0.00014 s⁻¹.
The molecule B2 came in with a koff of 1.95e-05 s⁻¹.
B3: the koff came out at 5.07e-05 s⁻¹.
The same measure, in the same setting: under B4 stands 4.12e-05 s⁻¹; under B5, 3.4e-05 s⁻¹; under B6, 8.78e-05 s⁻¹.

Another assay deals with T3, NOD mouse SIRP-α D1 domain. Put plainly: SPR, captured scFv-Fc, 100 nM analyte. The protocol: as §2, §3, §4
In turn, B1 came in with a koff of 0.0181 s⁻¹.

By koff is commonly meant the rate constant with which the complex falls apart. A lower koff goes with slow dissociation.
